# Reference: article PMC12948427 (The Journal of Clinical Investigation, 2025)
# Columns and labels:
# HGS 1-390 [1] = biological target: T1, HGS 1-390 (Homo sapiens, UniProt O14964); assay: biochemical; details: read-out: inhibition in FP-based HTS
# Description: In each assay plate, the DMSO and unlabeled peptides were used as negative and positive controls, respectively. Free tracer wells (180 nM tracer only) were also set up as gain value in each assay plate.
# HGS 1-390 [2] = biological target: T1, HGS 1-390
# T1 sequence (O14964 1-390): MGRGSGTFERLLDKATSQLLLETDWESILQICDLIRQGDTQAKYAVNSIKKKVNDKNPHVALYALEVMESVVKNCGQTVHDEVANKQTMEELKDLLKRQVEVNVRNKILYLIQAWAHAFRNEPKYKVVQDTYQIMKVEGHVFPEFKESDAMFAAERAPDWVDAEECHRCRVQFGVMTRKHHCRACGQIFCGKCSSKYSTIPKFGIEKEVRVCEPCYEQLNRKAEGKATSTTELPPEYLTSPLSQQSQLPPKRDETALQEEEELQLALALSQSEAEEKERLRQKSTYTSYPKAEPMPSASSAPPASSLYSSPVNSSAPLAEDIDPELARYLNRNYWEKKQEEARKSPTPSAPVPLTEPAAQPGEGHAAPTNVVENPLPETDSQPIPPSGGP
compound,measurement,setting,value
COc1ccc(N)cn1 [5-amino-2-methoxypyridine],inhibition at 33 µM,HGS 1-390 [1],> 60%
"COc1cc(OC)c2ccc(=O)oc2c1 [Citropten, citropten]",inhibition at 33 µM,HGS 1-390 [1],> 60%
"CC1=NN(c2ccc(C)c(C)c2)C(=O)/C1=N\Nc1cccc(-c2cccc(C(=O)O)c2)c1O [Eltrombopag, eltrombopag]",inhibition at 33 µM,HGS 1-390 [1],> 60%
"CCOc1ccc2nc3cc(N)ccc3c(N)c2c1 [Ethacridine lactate, ethacridine lactate]",inhibition at 33 µM,HGS 1-390 [1],> 60%
"CCCC(=O)OC[C@@H](OC(=O)CCC)[C@@H](OC(=O)CCC)[C@H](Cn1c2nc(=O)[nH]c(=O)c-2nc2cc(C)c(C)cc21)OC(=O)CCC [RTB, riboflavin tetrabutyrate]",inhibition at 33 µM,HGS 1-390 [1],> 60%
same,decrease in deuterium uptake of HGS 1-390 upon RTB binding,HGS 1-390 [2],~10%
same,increase in deuterium uptake of HGS 1-390 upon RTB binding,HGS 1-390 [2],6%
